According to PubChem BioAssay AID1468 (National Center for Advancing Translational Sciences (NCATS), 2008):
Out of some 280,000 compounds screened, about 1,100 (0.39%) were called active. This list was built around the results that the source calls inconclusive (neither active nor inactive); the mix of calls is not that of the screen. Calls come from the whole dose curve; as a rule, active = well fitted inhibition curve with a large enough effect; inconclusive = small, poorly fitted or top-dose-only effect, or effect the other way; inactive = flat fitted curve, though single readings scatter. Potencies of inconclusive entries are doubtful fits and often do not repeat.

Each molecule was assayed against Microtubule-associated protein tau (Homo sapiens) (UniProt P10636) (assay: qHTS for Inhibitors of Tau Fibril Formation, Fluorescence Polarization). Conditions: K18 P301L tau heparin fibrillization, Alexa594 FP, 6 h; series mostly up to 57.7 µM; activity, negative = inhibition: at the top concentration.
Chain of UniProt P10636 (P10636 whole entry, looked up): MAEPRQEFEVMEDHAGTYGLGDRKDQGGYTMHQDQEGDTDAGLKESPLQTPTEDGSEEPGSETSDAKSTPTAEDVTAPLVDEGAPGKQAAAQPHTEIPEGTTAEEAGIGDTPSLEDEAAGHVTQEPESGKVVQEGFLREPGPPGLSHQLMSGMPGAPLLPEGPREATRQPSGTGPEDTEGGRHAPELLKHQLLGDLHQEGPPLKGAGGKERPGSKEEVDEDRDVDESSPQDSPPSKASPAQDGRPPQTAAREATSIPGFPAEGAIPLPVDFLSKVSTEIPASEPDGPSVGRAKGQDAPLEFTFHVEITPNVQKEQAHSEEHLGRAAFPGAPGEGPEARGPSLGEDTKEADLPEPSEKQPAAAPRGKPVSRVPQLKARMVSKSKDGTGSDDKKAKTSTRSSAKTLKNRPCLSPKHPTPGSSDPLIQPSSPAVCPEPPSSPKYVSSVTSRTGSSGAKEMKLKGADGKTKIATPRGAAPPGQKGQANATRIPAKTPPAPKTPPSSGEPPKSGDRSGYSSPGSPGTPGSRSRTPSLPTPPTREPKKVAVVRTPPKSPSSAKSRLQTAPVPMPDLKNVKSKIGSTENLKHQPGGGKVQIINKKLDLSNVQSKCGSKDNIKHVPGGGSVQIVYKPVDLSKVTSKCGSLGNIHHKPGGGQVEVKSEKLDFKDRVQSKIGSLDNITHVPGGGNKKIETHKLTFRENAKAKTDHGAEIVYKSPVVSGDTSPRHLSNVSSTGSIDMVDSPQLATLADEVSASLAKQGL
Outline: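 FP of Alexa 594-tau after heparin (20 uM) induction. Substrate: human K18 P301L, 15 uM unlabeled, 0.24 uM labeled. Buffer 100 mM sodium acetate pH 7. 6 hr, 37 C.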
% is set by controls: 0 for no effect and ±100 for the full control effect; potency is the fitted concentration of half-maximal effect; tags give direction and shape of the fitted curve.
Note: nearly all actives have a fitted effect of over 55% in size.

Potency, inconclusive:
COc1cc2cc(CNc3ccccc3)c(=O)n(CC(=O)Nc3cccc(Cl)c3C)c2cc1OC 1 µM [activator, partial curve]
COc1ccc2c(c1)c(CC(=O)Nc1ccc(C)cc1)c(C)n2C(=O)c1ccc(Cl)cc1 28.2 µM [inhibitor, single point]
O=C(N/N=C/c1cccc(O)c1)c1ccc(COc2cccc3cccnc23)cc1 17.8 µM [inhibitor, single point]
O=C(Nc1ccc(Nc2ccccc2)cc1)c1ccc(Br)o1 5.62 µM [activator, full curve]
CCc1cccc(NS(=O)(=O)c2c(C)[nH]c(=O)[nH]c2=O)c1 31.6 µM [inhibitor, single point]
Cc1nc2ccccc2c(=O)n1/N=C/c1cn(-c2ccccc2)nc1-c1cccs1 20 µM [inhibitor, single point]
O=C(CC(Nc1ccccc1)c1ccccc1)C1CC1 (stereo not drawn) 10 µM [inhibitor, single point]
COc1cc(NC(=O)Cn2c(SCc3ccc(F)cc3)nc3cccnc32)cc(OC)c1 39.8 µM [inhibitor, single point]
Cc1cccc(NC(=O)c2cc(S(=O)(=O)N3CCCCC3)c[nH]2)c1C 22.4 µM [inhibitor, single point]
Cc1[nH]c2ccccc2c1/C=N/NC(=O)CNC(=O)c1ccco1 8.91 µM [inhibitor, single point]
C=CC(C1=CC(=O)C=CC1=O)c1ccc(O)cc1 (stereo not drawn) 31.6 µM [inhibitor, single point]
Cc1ccc(S(=O)(=O)N2CCC(Oc3ccc(-n4cnnn4)cc3)CC2)cc1 39.8 µM [inhibitor, single point]
COc1ccc(CC(=O)Nc2ccc3nc(Nc4cccc(Cl)c4)cc(C)c3c2)cc1OC 20 µM [inhibitor, partial curve]
CCc1ccc(-n2nnc(-c3nc(-c4ccccc4)no3)c2C)cc1 6.31 µM [inhibitor, partial curve]
COc1ccccc1-c1csc(NC(=O)c2cc(-c3cccs3)nc3ccccc23)n1 39.8 µM [inhibitor, single point]
Nn1c(C2COc3ccccc3O2)n[nH]c1=S (stereo not drawn) 44.7 µM [inhibitor, single point]
COc1cc(C)ccc1OCCOc1c(Cl)cc(Cl)cc1Cl 0.355 µM [inhibitor, full curve]
C=CCN=c1scc(-c2ccco2)n1/N=C/c1ccc(O)c(O)c1O 35.5 µM [inhibitor, single point]
Cc1ccc(C(=O)NNC(=O)CSc2nnc3c(n2)[nH]c2ccc(F)cc23)cc1 28.2 µM [inhibitor, single point]
COc1cccc(NS(=O)(=O)c2ccc3[nH]cc(C(=O)NCCCOC(C)C)c(=O)c3c2)c1 17.8 µM [inhibitor, partial curve]
O=C(C1=C(O)C(=O)N(c2ncccn2)C1c1ccc(Cl)c(Cl)c1)c1ccco1 (stereo not drawn) 39.8 µM [inhibitor, single point]
COc1ccc2oc(=O)c(C(=O)Nc3ccccc3-c3ccccc3)cc2c1 1.41 µM [inhibitor, full curve]
CSc1ccc(/C=N\NC(=O)CNc2ccc(C)cc2)cc1 1.26 µM [activator, partial curve]
C1CSC2(N1)C1CC3CC2CC(C1)C31NCCS1 (stereo not drawn) 15.8 µM [inhibitor, partial curve]
Cc1ccc(C(=O)COC(=O)c2cc(-c3ccccc3)nc3ccccc23)cc1C 25.1 µM [inhibitor, single point]
COc1cc(NC(=O)Cn2c(=O)n(Cc3ccccc3OC)c(=O)c3cccnc32)cc(OC)c1 22.4 µM [inhibitor, partial curve]
O=C(CSc1ccc2ccccc2n1)c1ccc2c(c1)OCO2 20 µM [inhibitor, partial curve, poor fit]
Cc1ccc(-c2c3c([nH]c(=S)c2C#N)CCCC3)o1 15.8 µM [inhibitor, partial curve, poor fit]
Cc1ccc(S(=O)(=O)c2ccccc2)cc1S 28.2 µM [inhibitor, partial curve]
CCCCCCCC/C=C\CCCCCCCC(=O)N[C@@H](CO)Cc1ccc(O)cc1 15.8 µM [inhibitor, partial curve]
CCc1ccc(NCc2cc3cc4c(cc3n(CC(=O)Nc3ccc(Cl)cc3)c2=O)OCO4)cc1 0.708 µM [activator, partial curve]
COC(=O)c1ccc(NC(=O)CC2C(=O)N(c3ccc(Cl)cc3)C(=O)N2Cc2cccs2)cc1 (stereo not drawn) 14.1 µM [inhibitor, partial curve]
CN(CCc1ccccn1)S(=O)(=O)c1ccc(F)cc1 39.8 µM [inhibitor, single point]
CSc1cccc(NC(=O)CSc2nc3ccccc3o2)c1 6.31 µM [inhibitor, full curve, poor fit]
COc1cc(OC)cc(C(=O)NNC(=O)c2cc3c(s2)CCCC3)c1 28.2 µM [inhibitor, partial curve, poor fit]
Cc1ccc(C(C(=O)NC2CCCCC2)N(C(=O)Cc2c[nH]c3ccccc23)c2ccccc2C)o1 (stereo not drawn) 20 µM [activator, partial curve, poor fit]
O=C(NC1=NCCS1)c1ccc(-c2ccc(Cl)cc2)o1 1.58 µM [inhibitor, partial curve, poor fit]
O=C1/C(=C/c2ccccc2)NC(=S)N1C(c1ccccc1)c1ccccc1 12.6 µM [inhibitor, partial curve]
COc1ccc(/C=C/c2nnc(NC(=O)CSc3ccc(C)cc3)s2)cc1 28.2 µM [inhibitor, partial curve]
O=C(Nc1ccc2c(c1)CCC2)c1cccc(S(=O)(=O)N2CCN(c3ccc(F)cc3)CC2)c1 39.8 µM [inhibitor, single point]
O=C(Cc1sc(-c2ccccc2)nc1-c1ccccc1)Nc1ccccc1 8.91 µM [inhibitor, full curve]

Potency, active:
C=CCSc1nc2ccccc2n1C(=O)/C=C/c1cc(OC)c(OC)c(OC)c1 22.4 µM

Potency, inactive:
Oc1c(I)cc(I)c2cccnc12

activity, negative = inhibition, inactive:
Cc1nc(N2CCN(Cc3ccc(Cl)cc3)CC2)c2oc3ccccc3c2n1 -2.39%
COc1ccc(-n2ncc3c(NCCCOC(C)C)ncnc32)cc1 -17.6%
Cc1ccc(NC(=O)C2CCCN(S(=O)(=O)c3ccc4[nH]c(=O)ccc4c3)C2)cc1Cl (stereo not drawn) -7.54%
O=C1CC(Nc2ccc(N3CCOCC3)cc2)C(=O)N1Cc1ccccc1 (stereo not drawn) 11.2%
NC(=O)c1ccc(-c2ncc(-c3ccccc3)o2)cc1 3.39%
O=[N+]([O-])c1ccc(Cl)c2cccnc12 -7.79%
O=c1[nH]c2ccc(S(=O)(=O)N3CCCCC3)cc2o1 -3.7%
CC1CCN(S(=O)(=O)c2ccc3c(c2)CCN3C(=O)Nc2ccccc2Br)CC1 -4.49%
COc1ccc2c(c1)cc(CNc1ccc(OC)c(OC)c1)c(=O)n2CC(=O)Nc1ccccc1C 7.68%
CC1(C)CCc2c([nH]c3ccccc3c2=O)O1 -7.09%
COC(=O)c1cc(NC(=O)c2ccc(OC)cc2)c(=O)oc1C 1.73%
Cc1cc(C)cc(-n2cnc3cc(C(=O)NCCc4ccccc4)ccc32)c1 6.74%
Cc1cccc(Cn2c(SCc3ccc(C(=O)N4CCCCCC4)cc3)nc3ccncc32)c1 -1.7%
O=C(CNC(=O)c1ccccc1Cl)OCc1cc(=O)n2ccsc2n1 -3.92%
COc1ccc(N=C/C=C2/C=C(c3ccccc3)OC(C)(C)O2)cc1 5.23%
COc1ccccc1Nc1c2c(nc3ccc(NC(=O)/C=C/c4cccc(OC)c4OC)cc13)CCCC2 -3.75%
CC(/C=N/N1CCN(c2ccccc2)CC1)=C\c1ccco1 1.95%
COc1ccc(CCNC(=O)c2ccc3c(c2)N(Cc2cccc(C)c2)C(=O)c2ccccc2S3(=O)=O)cc1OC -17.4%
CCOc1ccc(CN2CCN(C(=O)c3cccc(F)c3)CC2)cc1 -2.19%
CCN(CC(=O)Nc1c(F)cccc1F)C(=O)CCc1ccc(OC)cc1 -2.04%
N#CC1=C(N)SC2(CCCCC2)SC1c1ccccc1 (stereo not drawn) -17.9%
Clc1ccc(OCc2nn3c(-c4ccco4)nnc3s2)c(Cl)c1 -5.94%
CCOC(=O)Nc1ccc(Oc2ccccc2)cc1 5.41%
O=C(COC(=O)CCCSc1nc2ccccc2[nH]1)NC(=O)NC1CCCC1 -8.04%
COCCNC(=O)C(=O)NNS(=O)(=O)c1ccc(Cl)cc1 -1.3%
CCn1c(CNc2ccc(C)cc2)nnc1SCC(=O)NCc1ccccc1 4.85%
C=CS(=O)(=O)c1sc(Cl)c(N2CCOCC2)c1[N+](=O)[O-] -1.93%
CCc1nnc2c(Nc3ccc(Br)c(C)c3)nc3ccccc3n12 1.74%
Cn1c(=O)c2c(n3c4ccccc4nc13)NC(=O)CC2c1ccccc1F (stereo not drawn) -0.939%
CC1CCc2c(sc3nnn(Cc4ccc(F)cc4)c(=O)c23)C1 (stereo not drawn) -3.04%
